The supplement of paper PMC8813932
Counter-ions that a name gives are not always drawn. The list shows a part of the results. Most values come without repeats; read them as rough.

Each compound was assayed on Ov4Carbo (assay: log2 surviving fraction relative to plate median (drug vs vehicle, or drug+dl922-947 vs dl922-947 alone); ovarian cancer lines: OVCAR4 is platinum-sensitive while Ov4Cis resists cisplatin and Ov4Carbo carboplatin; higher = more cell survival). Conditions: dl922-947 oncolytic adenovirus co-treatment: none; compound concentration: 10 uM; 192 h.

Row | Compound | log2 surviving fraction
1 | N=C(N)c1ccc(N=NNc2ccc(C(=N)N)cc2)cc1 [Diminazene Aceturate] | -2.45
2 | Nc1cccc2c1CN(C1CCC(=O)NC1=O)C2=O (stereo not given) [Lenalidomide] | 2.72
3 | CCC(=O)O[C@@H](O[P@](=O)(CCCCc1ccccc1)CC(=O)N1C[C@H](C2CCCCC2)C[C@H]1C(=O)O)C(C)C [Fosinopril sodium (Monopril)] | 0.254
4 | CC1(C)S[C@@H]2[C@H](NC(=O)[C@H](N)c3ccccc3)C(=O)N2[C@H]1C(=O)O [Ampicillin Trihydrate] | 0.687
5 | CC[C@H]1OC(=O)C[C@@H](O)[C@H](C)[C@@H](O[C@@H]2O[C@H](C)[C@@H](O)[C@H](N(C)C)[C@H]2O)[C@@H](CCN2C[C@H](C)C[C@H](C)C2)C[C@@H](C)C(=O)/C=C/C(C)=C/[C@@H]1CO[C@@H]1O[C@H](C)[C@@H](O)[C@@H](OC)[C@H]1OC [Tilmicosin] | 0.504
6 | CN/C(=N\CCSCc1nc[nH]c1C)NC#N [Cimetidine (Tagamet)] | -1.51
7 | CC(C)C(=O)Nc1ccc([N+](=O)[O-])c(C(F)(F)F)c1 [Flutamide (Eulexin)] | -0.175
8 | CCCOc1ccc(C(=O)OCCN(CC)CC)cc1N [Proparacaine HCl] | 0.689
9 | C=CCc1cc(OC)c(O)c(C(=O)NCCO)c1 [Alibendol] | 0.365
10 | Cn1c(CNc2ccc(C(=N)N)cc2)nc2cc(C(=O)N(CCC(=O)O)c3ccccn3)ccc21 [BIBR 953 (Dabigatran etexilate, Pradaxa)] | 0.0656
11 | CC(C)OC(=O)C(C(=O)OC(C)C)=C1SC=CS1 [Malotilate] | 0.449
12 | CN(C)CCOc1ccc(/C(=C(/CCCl)c2ccccc2)c2ccccc2)cc1 [Toremifene Citrate (Fareston, Acapodene)] | -5
13 | C[C@@H]1CCC[C@H](C)N1NC(=O)c1ccc(Cl)c(S(N)(=O)=O)c1 [Clopamide] | 1.17
14 | CC(=O)OC[C@H]1O[C@@H]([S-])[C@H](OC(C)=O)[C@@H](OC(C)=O)[C@@H]1OC(C)=O.CCP(CC)CC.[Au+] [Auranofin] | -11.2
15 | CN(C(=O)CN(CCO)CC(=O)N(C)C(C)(C)Cc1ccccc1)C(C)(C)Cc1ccccc1 [Oxethazaine] | -6.17
16 | CCC[C@@H]1C[C@@H](C(=O)N[C@@H]([C@H]2O[C@H](SC)[C@H](O)[C@@H](O)[C@H]2O)[C@@H](C)O)N(C)C1 [Lincomycin hydrochloride (Lincocin)] | 0.35
17 | CC12CC3CC(C)(C1)CC(N)(C3)C2 [Memantine HCl (Namenda)] | -0.4
18 | Cc1cccc(C(C)c2c[nH]cn2)c1C (stereo not given) [Medetomidine HCl] | 1.14
19 | O=C(O)CCNC(=O)c1ccccc1 [Betamipron] | -0.117
20 | C[C@H](CS)C(=O)N1CCC[C@H]1C(=O)O [Captopril (Capoten)] | 0.19

Row | Compound | log2 surviving fraction
21 | C[C@@H](O)[C@H]1C(=O)N2C(C(=O)O)=C(S[C@@H]3CN[C@H](C(=O)N(C)C)C3)[C@H](C)[C@H]12 [Meropenem] | -0.483
22 | CN(C/C=C/C#CC(C)(C)C)Cc1cccc2ccccc12 [Terbinafine hydrochloride (Lamisil)] | 0.528
23 | Nc1ncnc2c1ncn2[C@@H]1O[C@H](COP(=O)(O)OP(=O)(O)OP(=O)(O)O)[C@@H](O)[C@H]1O [ATP (Adenosine-Triphosphate)] | 0.139
24 | NC(=O)c1cnccn1 [Pyrazinamide (Pyrazinoic acid amide)] | 1.18
25 | Cc1ccccc1C(=O)Nc1ccc(C(=O)N2CCCC(O)c3cc(Cl)ccc32)c(C)c1 (stereo not given) | -0.452
26 | CCC[C@H](NC(=O)[C@@H]1[C@H]2CCC[C@H]2CN1C(=O)[C@@H](NC(=O)[C@@H](NC(=O)c1cnccn1)C1CCCCC1)C(C)(C)C)C(=O)C(=O)NC1CC1 [Telaprevir (VX-950)] | -1.94
27 | O=C1C(O)=C([C@H]2CC[C@H](c3ccc(Cl)cc3)CC2)C(=O)c2ccccc21 [Atovaquone (Atavaquone)] | 1.34
28 | CC(C)(C#N)c1cc(Cn2cncn2)cc(C(C)(C)C#N)c1 [Anastrozole] | -0.0983
29 | CS(=O)(=O)CCNCc1ccc(-c2ccc3ncnc(Nc4ccc(OCc5cccc(F)c5)c(Cl)c4)c3c2)o1 [Lapatinib] | -8.7
30 | CC[C@H](C)[C@H](N)C1=N[C@H](C(=O)N[C@@H](CC(C)C)C(=O)N[C@H](CCC(=O)[O-])C(=O)N[C@H](C(=O)N[C@H]2CCCCNC(=O)[C@H](CC(N)=O)NC(=O)[C@@H](CC(=O)[O-])NC(=O)[C@H](Cc3cnc[nH]3)NC(=O)[C@@H](Cc3ccccc3)NC(=O)[C@H]([C@@H](C)CC)NC(=O)[C@@H](CCCN)NC2=O)[C@@H](C)CC)CS1.[Zn+2] [Bacitracin zinc] | 0.698
31 | COc1ccc(CN(CCN(C)C)c2ccccn2)cc1 [Pyrilamine Maleate] | 0.248
32 | COc1c2occc2cc2ccc(=O)oc12 [Methoxsalen (Oxsoralen)] | 0.249
33 | CC(C)NCC(O)c1cc(O)cc(O)c1 (stereo not given) [Metaproterenol Sulfate] | -0.0733
34 | CC[C@H]1OC(=O)[C@H](C)[C@@H](O[C@H]2C[C@@](C)(OC)[C@@H](O)[C@H](C)O2)[C@H](C)[C@@H](O[C@@H]2O[C@H](C)C[C@H](N(C)C)[C@H]2O)[C@](C)(O)C[C@@H](C)CN(C)[C@H](C)[C@@H](O)[C@]1(C)O [Azithromycin Dihydrate] | 0.913
35 | CCOC(=O)CCC(=O)O[C@H]1[C@H](O[C@@H]2[C@@H](C)[C@H](O[C@H]3C[C@@](C)(OC)[C@@H](O)[C@H](C)O3)[C@@H](C)C(=O)O[C@H](CC)[C@@](C)(O)[C@H](O)[C@@H](C)C(=O)[C@H](C)C[C@@]2(C)O)O[C@H](C)C[C@@H]1N(C)C [Erythromycin Ethylsuccinate] | -0.0919
36 | CN[C@@H]1[C@H](O)[C@H](NC)[C@H]2O[C@@]3(O)C(=O)C[C@@H](C)O[C@H]3O[C@@H]2[C@H]1O [Spectinomycin  hydrochloride] | 0.841
37 | CC[C@H](C)C(=O)O[C@H]1CCC=C2C=C[C@H](C)[C@H](CC[C@@H]3C[C@@H](O)CC(=O)O3)[C@H]21 [Mevastatin] | -3.6
38 | NC(CO)C(=O)NNCc1ccc(O)c(O)c1O (stereo not given) [Benserazide] | 1.02
39 | C[C@](N)(Cc1ccc(O)c(O)c1)C(=O)O [Methyldopa (Aldomet)] | -0.481
40 | CC(C)c1nc(CN(C)C(=O)N[C@@H](CCN2CCOCC2)C(=O)N[C@H](CC[C@H](Cc2ccccc2)NC(=O)OCc2cncs2)Cc2ccccc2)cs1 [Cobicistat (GS-9350)] | -4.25
